# According to PubChem BioAssay AID1347165 (National Center for Advancing Translational Sciences (NCATS), 2019):
# “And” between values parts separate entries of the source, which are not always exact repeats. Identical values can stand only once. Among all 220,000 compounds or so, about 5,700 (2.6%) were called active. The shares of active, inactive and inconclusive entries below differ from those in the screen. The call rests on the fitted dose curve; in most records, active means well fitted inhibition curve with a large enough effect; inconclusive means small, poorly fitted or top-dose-only effect; inactive means no such curve, though single readings can be large or run the other way. A potency beside an inconclusive call is a rough fit, not a confirmed value.
# Target: Lysine-specific demethylase 5B (Homo sapiens) (UniProt Q9UGL1)
# Sequence of UniProt Q9UGL1 (Q9UGL1 whole entry, looked up): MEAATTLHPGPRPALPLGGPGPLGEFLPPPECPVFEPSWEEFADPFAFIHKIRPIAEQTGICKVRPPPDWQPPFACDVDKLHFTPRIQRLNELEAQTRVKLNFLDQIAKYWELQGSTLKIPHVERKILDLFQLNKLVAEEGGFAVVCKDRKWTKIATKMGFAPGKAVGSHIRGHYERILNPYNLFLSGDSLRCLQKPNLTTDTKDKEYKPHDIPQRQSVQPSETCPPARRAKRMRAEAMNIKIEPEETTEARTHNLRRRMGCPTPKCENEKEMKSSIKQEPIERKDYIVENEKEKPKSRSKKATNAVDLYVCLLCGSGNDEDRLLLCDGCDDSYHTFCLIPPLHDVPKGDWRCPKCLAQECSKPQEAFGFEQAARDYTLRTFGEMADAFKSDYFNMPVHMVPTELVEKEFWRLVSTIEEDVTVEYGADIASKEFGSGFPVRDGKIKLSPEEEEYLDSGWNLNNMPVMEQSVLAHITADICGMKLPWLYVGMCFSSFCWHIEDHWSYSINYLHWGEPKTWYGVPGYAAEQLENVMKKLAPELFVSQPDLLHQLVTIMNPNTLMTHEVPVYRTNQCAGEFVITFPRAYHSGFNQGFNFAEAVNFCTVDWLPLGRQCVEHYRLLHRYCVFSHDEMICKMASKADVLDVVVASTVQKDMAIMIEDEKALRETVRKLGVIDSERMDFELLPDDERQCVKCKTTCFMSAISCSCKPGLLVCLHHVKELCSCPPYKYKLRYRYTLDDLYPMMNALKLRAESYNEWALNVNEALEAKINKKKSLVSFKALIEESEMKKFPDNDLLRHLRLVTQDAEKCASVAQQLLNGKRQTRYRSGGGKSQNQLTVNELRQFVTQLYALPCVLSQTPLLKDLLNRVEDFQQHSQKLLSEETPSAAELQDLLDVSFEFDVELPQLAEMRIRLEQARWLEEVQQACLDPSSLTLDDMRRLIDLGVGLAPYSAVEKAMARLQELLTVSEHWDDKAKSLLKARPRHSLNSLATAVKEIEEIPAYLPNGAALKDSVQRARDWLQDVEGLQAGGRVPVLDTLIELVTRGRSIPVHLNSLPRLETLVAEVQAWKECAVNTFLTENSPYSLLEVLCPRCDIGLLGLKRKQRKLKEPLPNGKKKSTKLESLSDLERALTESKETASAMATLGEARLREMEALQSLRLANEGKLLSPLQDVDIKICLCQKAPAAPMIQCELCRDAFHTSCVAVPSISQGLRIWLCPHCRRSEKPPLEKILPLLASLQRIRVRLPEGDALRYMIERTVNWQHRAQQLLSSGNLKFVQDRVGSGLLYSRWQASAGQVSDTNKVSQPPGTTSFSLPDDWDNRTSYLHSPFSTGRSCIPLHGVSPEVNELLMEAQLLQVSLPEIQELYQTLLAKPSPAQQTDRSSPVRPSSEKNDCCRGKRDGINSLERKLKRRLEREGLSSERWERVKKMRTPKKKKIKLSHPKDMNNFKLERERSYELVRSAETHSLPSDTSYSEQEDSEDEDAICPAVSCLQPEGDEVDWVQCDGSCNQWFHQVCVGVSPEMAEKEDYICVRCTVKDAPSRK
# Test: Primary screen for KDM5B Histone Demethylases FDH-coupled qHTS; further: nearly all actives have a fitted effect of over 70% in size; on activity change, negative = inhibition: 0% is about no effect
# Conditions: FDH-coupled NADH fluorescence (FDH is formaldehyde dehydrogenase); activity change, negative = inhibition: at 57.7 µM (top of the series) unless noted
# Outline: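 KDM5BΔAP (200 nM final) in 50 mM HEPES pH 7.5, 0.01% Tween-20 was preincubated 10 min at RT with compound over a concentration range. Substrate mix (H3K4me3 12.5 µM, α-KG 25 µM, Fe²⁺, ascorbate, NAD⁺, FDH) was added, and NADH fluorescence change over 30 min gave dose-response curves.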
# Potency means the concentration at half of the fitted maximal effect; tags describe the fitted curve by direction and shape.
Structure (SMILES),Potency,"activity change, negative = inhibition"
CCOC(=O)c1oc2cc(OCC(=O)OC(C)C)ccc2c(=O)c1-c1ccccc1OC,inactive,–
CCN(Cc1ccccc1)C(=O)C1CCCN(C2CCN(C(=O)C3CC3)CC2)C1 (stereo unspecified),inactive,–
Cc1csc(NC(=O)c2nc(C(O)c3ccccc3)oc2C)n1 (stereo unspecified),"inconclusive: 35.5 µM [inhibitor, single point]",–
CC(=O)c1ccc(OCC(=O)NC2CCc3ccccc32)cc1 (stereo unspecified),inactive,–
COc1cc(-c2cccs2)cc2c1OCCN(C(=O)c1ccncc1C)C2,inactive,–
Cc1ccc(SCC(=O)OCC(=O)NC(C)c2ccc(Br)cc2)cc1 (stereo unspecified),"inconclusive: 28.2 µM [inhibitor, partial curve, poor fit]",–
N#Cc1cccc(NCc2cc(Br)ccc2F)c1,"inconclusive: 35.5 µM [inhibitor, partial curve, poor fit]",–
CC(=O)N1CCc2cc(Br)cc(S(=O)(=O)CCC(=O)N3CCN(c4ccccc4Cl)CC3)c21,"inconclusive: 2 µM [inhibitor, full curve, poor fit]",–
Cc1ccc(Sc2ccc(C=O)o2)cc1,"inconclusive: 25.1 µM [inhibitor, partial curve, poor fit]",–
Cc1ccc(CN(C(=O)COc2cc(C)c(Cl)c(C)c2)c2ccccn2)o1,"inconclusive: 15.8 µM [inhibitor, partial curve, poor fit]",–
CC(C(=O)NCc1cccs1)N(C)Cc1ccc(C(C)(C)C)cc1 (stereo unspecified),inactive,–
Cc1cc(CNC(=O)c2cc(-c3ccccc3F)cc3c2OCCN3C)no1,active: 31.6 µM,–
COc1cc(C2CC(=O)N3CN(c4ccc(C)c(Cl)c4)CSC3=C2C#N)ccc1O (stereo unspecified),"inconclusive: 10 µM [inhibitor, partial curve, poor fit]",–
CCOc1ccc(-c2c(C)nn3c(C)c(C(=O)Nc4cc(C)cc(C)c4)cnc23)cc1OCC,"inconclusive: 11.2 µM [inhibitor, partial curve, poor fit]",–
CN1CCOc2c(C(=O)NCCN3CCNC3=O)cc(-c3cccnc3)cc21,"inconclusive: 28.2 µM [inhibitor, partial curve, poor fit]",–
COc1cc(C2CC(=O)Oc3c2c(=O)[nH]c2ccccc32)cc(OC)c1OC (stereo unspecified),"inconclusive: 17.8 µM [inhibitor, single point]",–
COCc1c(C(=O)OCC(=O)NCC2CCCO2)sc2cccc(F)c12 (stereo unspecified),"inconclusive: 25.1 µM [inhibitor, single point]",–
Cc1ccc(-c2cc3nc(-c4ccccc4)cc(C(F)(F)F)n3n2)cc1,"inconclusive: 17.8 µM [inhibitor, partial curve, poor fit]",–
COc1ccc(C(=O)Nc2cccc(/C=C(\CCC(=O)O)c3nc4ccccc4s3)c2)cc1,"inconclusive: 31.6 µM [inhibitor, partial curve, poor fit]",–
O=C1NCC2(CCN(C(=O)c3cn(CCC4CCCCN4)nn3)CC2)O1 (stereo unspecified),inactive,–
O=C(Nc1ccc(F)c(Cl)c1)c1ccccc1OCC1CCCO1 (stereo unspecified),inactive,–
COc1ccccc1C(=O)NCc1nnc2ccc(-c3ccc(C)cc3)nn12,active: 12.6 µM,–

Structure (SMILES),Potency,"activity change, negative = inhibition"
CC(C)Sc1ncc(Cl)c(C(=O)Nc2ccc(S(=O)(=O)N3CCCCC3)cc2)n1,"inconclusive: 31.6 µM [inhibitor, single point]",–
CSCCC(=O)N1CCC(C2CCN(c3ncccn3)CC2)C1 (stereo unspecified),"inconclusive: 25.1 µM [inhibitor, single point]",–
COCC1(c2nc(-c3ccc(C(N)=O)cc3)nn2-c2ccc(OC)cc2)CC1,"inconclusive: 17.8 µM [inhibitor, partial curve, poor fit]",–
O=C(O)c1cncc(-c2cccc(CN3CCOCC3)c2)n1,"inconclusive: 15.8 µM [inhibitor, partial curve, poor fit]",–
CCCN(C)c1nccnc1OC1CCN(C(=O)CC(C)C)C1 (stereo unspecified),"inconclusive: 11.2 µM [inhibitor, partial curve]",–
COc1ccccc1OCC#CCN1CCC(Cc2ccccc2)CC1,"inconclusive: 31.6 µM [inhibitor, partial curve, poor fit]",–
Cc1ccc(C)c(-c2ccc(=O)n(Cc3c(F)cccc3Cl)n2)c1,"inconclusive: 39.8 µM [inhibitor, single point]",–
O=C(NCc1ccccc1)c1ccc(N2CC3CC(C2)[C@H]2CCCC(=O)N2C3)nc1 (stereo partly specified),"inconclusive: 22.4 µM [inhibitor, single point]",–
CC1=C(C(=O)Nc2ccc(Cl)cc2)C(c2ccccc2)n2ncc(C(=O)Nc3ccccc3)c2N1 (stereo unspecified),"inconclusive: 15.8 µM [inhibitor, partial curve, poor fit]",–
Cc1ccc(NC(=O)CN2C(=O)COc3ccc(S(=O)(=O)NC4CCCC4)cc32)cc1N(C)C,"inconclusive: 39.8 µM [inhibitor, single point]",–
COc1ccc(CCNC(=O)Cc2c(C)c3ccc(OC(C)=O)c(OC(C)=O)c3oc2=O)cc1,inactive,–
Cc1cc(/C=N/N2CCN(C)CC2)c(C)n1-c1ccc(Cl)cc1,"inconclusive: 11.2 µM [inhibitor, partial curve, poor fit]",–
O=C(Nc1ccc2[nH]ncc2c1)c1nn(-c2ccccc2)c(=O)c2ccccc12,inactive,–
CCOCC(=O)N1CCC(Nc2nccnc2OC)CC1,active: 28.2 µM,–
Cc1c(Cl)cccc1NC(=O)CCOc1ccccc1,"inconclusive: 6.31 µM [inhibitor, partial curve, poor fit]",–
COc1cccc(-c2ccccc2NC(=O)C2CCN(Cc3cc(OC)ccc3O)CC2)c1,active: 15.8 µM,–
Cc1cccn2c(=O)c3cc(C#N)c(=O)n(-c4nnc(SCc5ccc(Cl)cc5)s4)c3nc12,"inconclusive: 15.8 µM [inhibitor, partial curve, poor fit]",–
COc1cc(OC)cc(C(=O)Oc2ccc(-c3ccccc3)cc2)c1,inactive,–
CCCC(C)N(C)CC(=O)N1CCN(c2oc(C)nc2C#N)CC1 (stereo unspecified),inactive,–
Cc1cccc(C)c1NC(=O)CS(=O)(=O)c1nc(-c2ccc(Cl)cc2)cn1-c1ccccc1,inactive,–
CCc1nnc(NC(=O)c2cccc3ncccc23)s1,inactive,–
COc1ccc2c(c1)CCN=C2C[C@H]1CN(C(=O)NC(C)C)CC[C@H]1CC(=O)O,"inconclusive: 31.6 µM [inhibitor, single point]",–

Structure (SMILES),Potency,"activity change, negative = inhibition"
O=C(N[C@H]1C[C@H]2C(=O)NC[C@@H](CCC(=O)N3CCN(c4ccccc4)CC3)N2C1)C1CC1,inactive,–
Cn1c(=O)c2c(nc(CN3CCN(Cc4ccccc4)CC3)n2CCc2ccccc2)n(C)c1=O,inactive,–
COc1cccc(CC(=O)Nc2c(C(=O)N3CCN(c4ccccc4F)CC3)oc3ccccc23)c1,"inconclusive: 15.8 µM [inhibitor, partial curve, poor fit]",–
O=C(CCN1CCN(c2cnccn2)CC1)Nc1ccccc1F,"inconclusive: 39.8 µM [inhibitor, single point]",–
c1ccc(CCc2nnc3sc(-c4cc5ccccc5[nH]4)nn23)cc1,"inconclusive: 25.1 µM [inhibitor, single point]",–
CC(=O)c1cccc(NC(=O)c2ccc3c(c2)N(Cc2ccc(C)cc2)CCS3)c1,"inconclusive: 35.5 µM [inhibitor, partial curve, poor fit]",–
OC[C@@H]1CN(C2CCCC2)C[C@H]1c1nc(-c2cccnc2)no1,"inconclusive: 6.31 µM [inhibitor, partial curve]",–
CCCC(C)C(=O)OCC(=O)C12CC3CC(CC(C3)C1)C2 (stereo unspecified),inactive,–
O=C(c1ccc2cc[nH]c2c1)N1CCC2(CC1)N=C(c1ccc(Cl)cc1)NO2,active: 28.2 µM,–
COc1ccc(-c2ccc3nnc(CNC(=O)C(C)Oc4ccc(Cl)cc4)n3n2)cc1 (stereo unspecified),active: 28.2 µM,–
CCN(Cc1nccn1C)C(=O)c1ccc(N2CCC(N(C)C)C2)nc1 (stereo unspecified),"inconclusive: 31.6 µM [inhibitor, single point]",–
CCOc1ccccc1C1NC(=O)NC(CN2CCN(c3ccccn3)CC2)=C1C(=O)OC (stereo unspecified),inactive,–
CCC(NC1CCN(C(=O)c2ccccc2)CC1)c1ccnn1C (stereo unspecified),inactive,–
CNC(=O)c1ccc(CN(C)C(=O)c2ccc(S(=O)(=O)NC3CC3)cc2)cc1,inactive,–
CCOc1ccc(NC(=O)c2c(NCc3cc(OC)c(OC)cc3OC)sc3c2CCCC3)cc1,"inconclusive: 15.8 µM [inhibitor, partial curve, poor fit]",–
COc1ccc(-c2cc3c(=O)n(CCNC(=O)c4cc(Cl)ccc4F)ccn3n2)cc1,"inconclusive: 14.1 µM [inhibitor, single point]",–
CCC(=O)N1c2ccccc2CC1C(=O)NCCN1CCN(c2cc(Cl)ccc2C)CC1 (stereo unspecified),–,inconclusive: -31% [inhibitor]
O=C(Cc1ccc(Cl)cc1)Nc1ccc2oc(-c3ccc(F)cc3)nc2c1,"inconclusive: 1.41 µM [inhibitor, partial curve, poor fit] and inconclusive: 39.8 µM [inhibitor, single point]",–
COC(=O)c1ccccc1NC(=O)C(Cc1ccccc1)N1Cc2ccccc2C1=O (stereo unspecified),"inconclusive: 39.8 µM [inhibitor, single point]",–
COc1ccc(N(C(=O)Cc2cccs2)C(C(=O)NC2CCCC2)c2ccncc2)cc1OC (stereo unspecified),"inconclusive: 28.2 µM [inhibitor, partial curve, poor fit]",–
Cc1nc(C)c(C(=O)NCc2cccnc2)s1,inactive,–
COc1ccc(C)cc1NC(=O)Cn1cc(S(=O)(=O)N2CCC(C)CC2)c2ccccc2c1=O,"inconclusive: 25.1 µM [inhibitor, partial curve, poor fit]",–
